# From publication PMC4336329 (PLoS ONE, 2015)
# About 2,200 (0.71%) of roughly 310,000 compounds showed an effect of 50% or more. The effect is printed as a negative number. Some of the results follow.
# Molecular target: human ether-à-go-go-related gene (hERG) potassium channel (human, UniProt Q12809)
# Assay: primary screen, population patch clamp on CHO cells stably expressing hERG
# Chain of human ether-à-go-go-related gene (hERG) potassium channel (Q12809 whole entry, looked up): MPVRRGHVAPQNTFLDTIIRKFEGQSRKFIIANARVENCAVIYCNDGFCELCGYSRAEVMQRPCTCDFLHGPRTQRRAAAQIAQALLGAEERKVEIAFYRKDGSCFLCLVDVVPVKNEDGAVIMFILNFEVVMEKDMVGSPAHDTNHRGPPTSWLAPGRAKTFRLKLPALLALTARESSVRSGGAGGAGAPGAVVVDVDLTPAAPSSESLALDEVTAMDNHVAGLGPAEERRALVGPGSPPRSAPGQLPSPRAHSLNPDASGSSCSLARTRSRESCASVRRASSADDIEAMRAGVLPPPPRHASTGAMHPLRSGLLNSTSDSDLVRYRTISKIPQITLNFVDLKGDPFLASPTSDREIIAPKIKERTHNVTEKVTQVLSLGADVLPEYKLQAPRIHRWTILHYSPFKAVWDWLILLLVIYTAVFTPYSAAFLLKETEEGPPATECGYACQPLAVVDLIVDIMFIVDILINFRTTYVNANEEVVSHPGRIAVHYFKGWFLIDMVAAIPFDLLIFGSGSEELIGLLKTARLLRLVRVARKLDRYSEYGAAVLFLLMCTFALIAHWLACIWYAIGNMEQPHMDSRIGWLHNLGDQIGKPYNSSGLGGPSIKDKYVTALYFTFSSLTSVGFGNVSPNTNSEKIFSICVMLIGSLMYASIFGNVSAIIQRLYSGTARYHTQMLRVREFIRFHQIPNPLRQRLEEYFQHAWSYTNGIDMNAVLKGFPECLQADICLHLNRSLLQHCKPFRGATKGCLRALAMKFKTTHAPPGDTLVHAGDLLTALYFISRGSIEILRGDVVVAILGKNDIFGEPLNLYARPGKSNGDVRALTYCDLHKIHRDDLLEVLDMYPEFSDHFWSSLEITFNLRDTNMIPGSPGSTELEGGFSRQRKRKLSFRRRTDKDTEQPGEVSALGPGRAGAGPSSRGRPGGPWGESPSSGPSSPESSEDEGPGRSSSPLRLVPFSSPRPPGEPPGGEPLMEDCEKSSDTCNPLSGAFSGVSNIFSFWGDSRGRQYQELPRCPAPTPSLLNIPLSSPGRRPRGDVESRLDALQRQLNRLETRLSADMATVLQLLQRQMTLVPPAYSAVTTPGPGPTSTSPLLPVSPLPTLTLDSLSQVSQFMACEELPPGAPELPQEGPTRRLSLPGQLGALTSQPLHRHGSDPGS
row,SMILES,"hERG current change (%, negative = inhibition) at 1uM [%]"
1,CCCNC(=O)COC(=O)c1cccnc1Nc1ccccc1F,5.28
2,Cc1ccc(C(=O)NN(CCC#N)C2=NS(=O)(=O)c3ccccc32)cc1,11.6
3,Nc1nonc1-c1noc(COc2ccccc2Cl)n1,-4.75
4,O=C(CCc1cccc(Cl)c1)NC1CCCN(Cc2ccccc2F)C1 (stereo not shown),10.7
5,CCNS(=O)(=O)c1ccc(CCC(=O)NCc2ccccc2)cc1,7.05
6,Cc1ccc(-c2onc3ccc(C4(C)OCCO4)cc23)cc1,7.67
7,COc1ccccc1N1CCN(C(CNC(=O)c2ccco2)c2cccnc2)CC1 (stereo not shown),-0.755
8,Br.CCCN1CCc2cc(O)cc3c2[C@H]1Cc1ccc(O)c(O)c1-3.O,-16.6
9,CN(C)C(=O)c1cnc(Sc2ncc(C(F)(F)F)cc2Cl)n1C,14.9
10,Oc1cc2ccccc2nc1-c1ccccc1Cl,16.9
11,O=C(NCc1ccco1)c1ccc(CS(=O)(=O)Cc2ccc(Cl)cc2)o1,1.46
12,C/C(=N/NC(=O)c1ccc2c(c1)OCO2)c1ccc(NC(=O)C(F)(F)F)cc1,11.4
13,Cc1ccc2oc(C(=O)NCC(c3ccco3)N(C)C)c(C)c2c1 (stereo not shown),3.53
14,Clc1cc(Cl)c(-c2cc(Cl)c(Cl)cc2Cl)cc1Cl,12.7
15,CCOc1ccc2nc(NC(=O)c3cc([N+](=O)[O-])ccc3N3CCOCC3)sc2c1,8.4
16,COC(=O)C1CCN(C2CC(=O)N(c3cc(C)cc(C)c3)C2=O)CC1 (stereo not shown),6.59
17,CC(C)c1ccc(N2C(=O)CC(Sc3ncn[nH]3)C2=O)cc1 (stereo not shown),9.56
18,COc1cccc(OCC(=O)NNC(=O)c2ccc(-c3ccccc3)cc2)c1,-2.47
19,COc1ccc(/C=C(\C#N)C(=O)OCC(=O)NCc2ccc(Cl)cc2)cc1,3.57
20,Cc1ccc(/C=N/NC(=O)c2ccc(-c3ccccc3)cc2)o1,5.02
21,CN(C)S(=O)(=O)N1CCN(C(=O)c2cccs2)CC1,6.56
22,N#CC1=C(N)C(C#N)(C#N)C(c2ccncc2)C2CN(C(=O)OCc3ccccc3)CC=C12 (stereo not shown),8.49

row,SMILES,"hERG current change (%, negative = inhibition) at 1uM [%]"
1,CC1CCCCN1CCCNC(=O)c1ccc2c(=O)n(CCc3ccccc3)c(=O)[nH]c2c1 (stereo not shown),5.96
2,CCC(C(=O)Nc1c(C)cc(C)cc1C)N1CCCCCC1 (stereo not shown),9.72
3,O=C(O)C1CC=CCC1C(=O)Nc1cccc(C(=O)N2CCCCC2)c1 (stereo not shown),9.67
4,CCN(CC)c1ccc(NC(=O)c2ccccc2)cc1S(=O)(=O)Nc1ccccc1OC,11.2
5,Cc1ccc(C)c2sc(N)nc12,9.5
6,Cc1occc1C(=O)N/N=C/c1c[nH]c2ccccc12,-0.697
7,C/C(=N\NS(=O)(=O)c1ccccc1)c1ccc2c(c1)OCO2,-9.43
8,Cc1ccc(S(=O)(=O)N(Cc2ccccc2)c2ccccc2C(=O)NCc2cccnc2)cc1,3.82
9,Cc1ccc(NC(=O)C2CCCN(S(=O)(=O)c3c(C)noc3C)C2)cc1 (stereo not shown),12.8
10,CC(C)c1nnc(NC(=O)C2CCCN2C(=O)Nc2ccc(F)cc2)s1 (stereo not shown),13.1
11,CN(C)c1ccc(-c2noc(C3CCN(S(=O)(=O)c4cccc(C(=O)O)c4)CC3)n2)cc1,13.6
12,CCCn1c(NC(=O)c2cccc(S(=O)(=O)N3CCCC3)c2)nc2ccccc21,-9.49
13,O=C(Nc1ccc(OCc2ccccc2)cc1)Nc1ccccc1C(=O)NCCCN1CCOCC1,13.8
14,CCn1cnc2c1c(=O)n(CC(=O)N1CCc3ccccc31)c(=O)n2Cc1ccccc1,11
15,N/C(Cc1cccs1)=N\OC(=O)COc1ccccc1,12.3
16,N#CCCn1cc(/C=N/NC(N)=S)c(-c2ccc(-c3ccccc3)cc2)n1,7.42
17,Cc1ccc2[nH]c3c(N4CCN(Cc5ccccc5)CC4)ncnc3c2c1,6.45
18,COC(=O)C1=C(c2c(C)noc2C)C[C@@H]2CC[C@H]1N2C(=O)NC1Cc2ccccc2C1,6.81
19,CCCCN(C(=O)CSCC(=O)Nc1ccc(OC)cc1)c1c(N)n(Cc2ccccc2)c(=O)[nH]c1=O,6.01
20,Cc1ccc(C)c(S(=O)(=O)N2CCCC2CNC(=O)C(=O)NC2CC2)c1 (stereo not shown),19.1
21,CC(C)(C)c1cc(NC(=O)COC(=O)C2CC2)n(-c2ccccc2)n1,6.45
